# Read counts are not given, so values of variants with three or more changes are uncertain.
# B1: CPEB3 Ribozyme (parent)
# chain: UAACAGGGGGCCACAGCAGAAGCGUUCACGUCGCAGCCCCUGUCAGAUUCUGGUGAAUCUGCGAAUUCUGCUGUAUAUCUC
# Variants of: B1
# Experiment: self-cleavage, relative activity (ratio to wild type); higher = more cleavage; in vitro, sequencing
# Method in brief: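 For each CPEB3 ribozyme variant, relative activity is its cleaved/total read fraction divided by the unmutated ribozyme's. Barcoded error-prone PCR libraries were transcribed by T7 RNA polymerase (5 hours, 37°C) and held in DNase I for 15 min before an EDTA stop, with cleavage occurring throughout. Template-switching reverse transcription and Illumina sequencing were used to read the RNAs. A 5-read minimum applied, and results are the mean of three batches.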
row,Variant,self-cleavage
1,UAACAGGGGGCCACAGCAGGGGCGUUCACGUCGCAGCCCCUGUCAGAUUCUGGUGGAUCUGCGAAUUCUGCUGUAUAUCUA,0.46
2,UAACAGGGGGCCACAGCAGGGGCGUUCACGUCGCAGCCCCUGUCAGAUUCUGGUGUAUCUGCGAAUUCAGCUGUAUACCUC,0.52
3,UAACAGGGGGCCACAGCAGGGGCGUUCACGUCGCAGCCCCUGUCAGAUUCUGGUGAGCCUGCGAAUACUGCUGUAUAUCUC,0.25
4,UAACAGGGGGCCACAGCAGGGGCGUUCACGUCGCAGCCCCUGUCAGAUUCUGGUGAAUCUGCGGAUUCUGCCGUAUAUCUC,0.12
5,UAACAGGGGGCCACAGCAGGGGCGUUCACGUCGCAGCCCCUGUCAGAUUCUGGUGAAUCUGCGUAUUCUGCUGUAUAUCUC,0.37
6,UAACAGGGGGCCACAGCAGGGGCGUUCACGUCGCAGCCCCUGUCAGAUUCUGGUGAAUCUGCGAAUUCUGCUGUCUAUCUC,0.11
7,UAACAGGGGGCCACAGCAGGGGCGUUCACGUCGCAGCCCCUGUCAGAUUCUGGUGAAUCUGCGAAUUCUGCUGUAUGUCUC,0.4
8,UAACAGGGGGCCACAGCAGGGGUGUUCACGUCGCAGCCCCUGUCAGAUUCUGGUGAAUCUGCGAAUCCUGCUGUAUAUCUC,0.05
9,UAACAGGGGGCCACAGCAGGGGCGUUCAUGUCGCAGCCCCUGUCAGAUUCUGAUGAAUCUGCGAAUUCUGCUGUAUAUCUC,0.09
10,UAACAGGGGGCCACAGCAGGGGCGUUCACGUCGCAGCCCCUGUCAGAUUCUGGUGAAUCUGCGAAUUCUGAUGUAUAUCUC,0.05
11,UAACAGGGGGCCACAGCAGGGGCGUUCACGUCGCAUCCCCAGUCAGAUUCUGGUGAAUCCGCGAAUUCUGCUGUAUAUCUC,0.19
12,UAACAGGGGGCCACAGCAGGGGCGUUCACGUCGCAGCCCCUAUCAGAUUCUGGUGAAUCUGCGAAUUCUGCUGUAUAUCUC,0.14
13,UAACAGGGGGCCACAGCAGGGGCGUUCACGUCGCAGCCCCUGUCAGAUUCUAGUGAAUCUGCGAAUCCUGCUGUAUAUCUC,0.3
14,UAACAGGGGGCCACAGCAGGGGCGAUCACGUCGCAGCCCCUGUCCGAUUCUGGUAAAUCUGCGAAUUCUGCUGUAUAUCUC,0.33
15,UAACAGGGGGCCACAGCAGGGGCGAUCACGUCGCAGCCUCUGUCAGAAUCUGGUGAACCUCCGAAUUCUGCUGUAUAUCUC,0.03
16,UAACAGGGGGCCACAGCAGGGGCGCUCACGUCGCAGCCCCUGUCAGAUUCUGGUGAAUCUGCGGAUUCCGCCGUAUAUCUC,0.1
17,UAACAGGGGGCCACAGCAGGGGCGCCCACGUCGCCGCCCCUGUCAGAUUCUUGUGAAUCUGCGAAUUCUGCUGUAUAUCUC,0.45
18,UAACAGGGGGCCACAGCAGGGGCGUCCACGUCGCAGCCCCUGCCAGAUUCUGGUGAAUCUGCGAAUUCUGCUGUAUAUCUC,0.09
19,UAACAGGGGGCCACAGCAGGGGCGUCCACGUCGCAGCCCCUGUCAGAUUCUGGUGAAUCUGCGAAUUCUGCCGUAUAUCUC,0.05
20,UAACAGGGGGCCACAGCAGGGGCGUUCACGACGCAGCCCCUGUCAGAUUCUGGUGAAUCCGCGAAUUCUGCUGGAUAUCUC,0.05
21,UAACAGGGGGCCACAGCAGGGGCGUUCACGUCGCAGCCCCAGUCAGAUUCCGGUGAAUCGGCGACUUCUGCUGUAUAUCUC,0.2
22,UAACAGGGGGCCACAGCAGGGGCGUUCACGUCGCAGCCCCCGUCGGAUUCUGGUGAAUCUGCGAAUUCUGCUGUAUAUCAC,0.45
23,UAACAGGGGGCCACAGCAGGGGCGUUCACGUCGCAGCCCCCGUCAGACUCUGGUGAUUCUGCGAAUUCUGCUGUAUAUCCC,0.12

row,Variant,self-cleavage
1,UAACAGGGGGCCACAGCAGGGGCGUUCACGUCGCAGCCCCUGCCAGAUUCUGGUGAAUCUGCGAAUUCUGCUGUAUAUCUC,0.36
2,UAACAGGGGGCCACAGCAGGGGCGUUCACGUCGCAGCCCCUGUCAGAUUCCGAUGAAUCUGCGAAUUCUGCUGUAUACCUC,0.5
3,UAACAGGGGGCCACAGCAGGGGCGUUCACGUCGCAGCCCCUGUCAGAUUCCGGCGAAUCUGCGAAUUCUGCUGUAUAUCUC,0.37
4,UAACAGGGGGCCACAGCAGGGGCGUUCACGUCGCAGCCCCUGUCAGAUUCUGGUGAAUCUGCGAAUCCAGCUGUAUAUCUC,0.19
5,UAACAGGGGGCCACAGCAGGUGCGUUCUCGUCGCAGCCCCUGUCAGAUUCAGGUGAAUCUGCGAAUUCUGCUGUAUAUCUC,0.12
6,UAACAGGGGGCCACAGCAGGUGCGUUCACGUCGCAGCCCCUGUCAGAUUCUGGUGAGUCUGCGGAUUCUGCUGUAUAUCUC,0.25
7,UAACAGGGGGCCACAGCAGGUGCGUUCACGUCGCAGCCCCUGUCAGAUUCUGGUGAGUCUGCGGAUUCAGCUUUAUAUCUC,0.04
8,UAACAGGGGGCCACAGCAGGUGCGUUCACGUUGCAGCCCCUGUCAGAUUCUGGUGAAUCCGCGAAUUCUGCUGUAUAUCUC,0.07
9,UAACAGGGGGCCACAGCAGGUGCCUUCACAUCGCAGCCCCUGUCAGAUUCGGGUGAACCUGCGAAUCCUGCUGUAUAUCUC,0.05
10,UAACAGGGGGCCACAGCAGGUGCGUUCACGACGCAGCCCCAGUCAGAUUCUGGUGAACCUGCGAGUUCUGCUGUAUAUCUC,0.05
11,UAACAGGGGGCCACAGCAGGUGCGUUCACGUCGCAGCCCCUGUCAGACUCUGGUGAAUCUGCGAAUUCUGCUGUAUACCUC,0.28
12,UAACAGGGGGCCACAGCAGGUGCGUUCACGUCGCAGCCCCUGUCAGAUUCAGGUGAAUCUGCGAAUUCUGCUGUAUAUCCC,0.14
13,UAACAGGGGGCCACAGCAGGUGCGUUCACGUCGCAGCCCCUGUCAGAUUCUGGCGAAUCUGCGAAUUCUGCUGUAUAUCUC,0.3
14,UAACAGGGGGCCACAGCAGGAGCGUUCCCGUCGCAGCCCCUGUCAGAUUCUGGUGAAUCUGCGAAUUCUGCCGUAUAUCUC,0.2
15,UAACAGGGGGCCACAGCAGGAGCGUUCGCGUCGCAGCCCCUGUCGGAUCCUGGUGAAUCUGCGAAUUCUGCUGUAUAUCUC,0.09
16,UAACAGGGGGCCACAGCAGGAGCGUUCGCGUCGCAGCCCCUGUCAGGUUCUGGUGAAUCUGCGAAUCCUGCUGUAUAUCAC,0.21
17,UAACAGGGGGCCACAGCAGGAGCGUUCGCGUCGCAGCCCCUGUCAGAUUCUGGUGAAUCUGCGAGUUCUGCUGUAUGUCUC,0.1
18,UAACAGGGGGCCACAGCAGGAGCGUUCGCGUCGCAGCCCCUGUCAGAUUCUGGUGAAUCUGCGAAUUCUGCUGUGUAUCUC,0.49
19,UAACAGGGGGCCACAGCAGGAGCGUUCGCGUCGCAGCCCCUGUCAGAUUCUGGUGAAUCUGCGAAUUCUGCUGUGUAACUC,0.67
20,UAACAGGGGGCCACAGCAGGAGCGUUCGUGUCGCAGCCCCUGUCAGAUUCUGGUGAAUCCGCGAAUCCUGCAGUAUAUCUC,0.07
21,UAACAGGGGGCCACAGCAGGAGCGUUCGCGUCGCAGACCCUGUCAGAUUCUGGUGAAUCUGUGAAUUCGGCUGUAUGUCUC,0.03
22,UAACAGGGGGCCACAGCAGGAGCGUUCGCGUCGCAGCUCCUGACAGAUACUGGUGAAUCUGCGAAUUCUGCUGUAAAUCUC,0.05
23,UAACAGGGGGCCACAGCAGGAGCGUUCGCGCCGCAGCCCCUGUCAGAUCCUGGUGAAUCUGCGAAUUCUGCUGUAUAUCUC,0.04

row,Variant,self-cleavage
1,UAACAGGGGGCCACAGCAGGAGCGUUCGCGCCGCAGCCCCUGUCAGAUUCUGGUGAAUCUGCGAAUUCCGCUGUAUAUCUC,0.16
2,UAACAGGGGGCCACAGCAGGAGCGUUCGCGUCGCAGCCCCAGUCAGAUUCUGGUGAAUCUGCGAAUUCUGCUGUAUAUCUC,0.46
3,UAACAGGGGGCCACAGCAGGAGCGUUCGCGUCGCAGCCCCAGUCAGAUUCUGGUGAGUCUGCGAAUUCUGCCGUAUAUCUC,0.25
4,UAACAGGGGGCCACAGCAGGAGCGUUCGCGUCGCAGCCCCCGUCAGAUUCUGGUGAAUCUGCGAAUUCUGCUGUAUAUCUC,0.38
5,UAACAGGGGGCCACAGCAGGAGCGUUCGCGUCGCAGCCCCGGCCAGAUUCUGGUGAAUCUGCGAAUUCUGCUGUAUAUCUC,0
6,UAACAGGGGGCCACAGCAGGAGCGUUCGCGUCGCAGCCCCUGCCAGAUUCUGGUGGAUCUGCGAAUUCUGCUGUAUAUCUC,0.33
7,UAACAGGGGGCCACAGCAGGAGCGUUCGCGUCGCAGCCCCUGCCAGAUUCUGGUGAAUCCGCGAAUUCUGCUGUAUAUCUC,0.08
8,UAACAGGGGGCCACAGCAGGAGCGUUCGCGUCGCAGCCCCUGUCAGAUACCGGUGAAUCUGCGAGUUCUGCUGAAUAUCUC,0
9,UAACAGGGGGCCACAGCAGGAGCGUUCGCGUCGCAGCCCCUGUCAGAUUCUGGCGAAUCUGCGGAUCCCGCUGAAUAUCUC,0.05
10,UAACAGGGGGCCACAGCAGGAGCGUUCGCGUCGCAGCCCCUGUCAGAUUCUGGUGAAUCAGCGAAUUAUGCUGUAUAUCUC,0.17
11,UAACAGGGGGCCACAGCAGGAGCGUUCGCGUCGCAGCCCCUGUCAGAUUCUGGUGAAUCUGCGAACUCUCCUGUACAUCUC,0.04
12,UAACAGGGGGCCACAGCAGGAGCGUUCGCGUCGCAGCCCCUGUCAGAUUCUGGUGAAUCUGCGAAUCCUGCUGUAUAUCUC,0.26
13,UAACAGGGGGCCACAGCAGGAGCGUUCGCGUCGCAGCCCCUGUCAGAUUCUGGUGAAUCUGCGAAUUCUGCCGUAUAACUC,0.52
14,UAACAGGGGGCCACAGCAGGAGCGUUCUCGUCGCAGCCCCUGUCGGAUUCUGGUGAAACUGCGAAUCCUGCCGUAUAUCUC,0.09
15,UAACAGGGGGCCACAGCAGGAGCGUUCUCGUCGCAGCCCCUGUCGGAUUCUGGUGAAUCUGCGAAUUCCGCUGUAUAUCUC,0.18
16,UAACAGGGGGCCACAGCAGGAGCGUUCUCGUCGCAGCCCCUGUCAGAUUCUGGUGAAUCUGCGGAUUCUGCUGUAUAUCUC,0.39
17,UAACAGGGGGCCACAGCAGGAGCGUUCUCGUCGCAGCCCCUGUCAGAUUCUGGUGAAUCUGCGAAUUCUGCUGUUUAUCUC,0.71
18,UAACAGGGGGCCACAGCAGGAGCGUUCUUGUCGCAGCCCCUGUAAGAUGCUGGUGAAUCUGCGAAUUCUGCUGUAUAUCUC,0.23
19,UAACAGGGGGCCACAGCAGGAGCGUUCUCGUCGUAGCCCCUGUCAGAUUCUGGCGAAUCUGCGAAUACUGCUGUGUAUCUC,0.05
20,UAACAGGGGGCCACAGCAGGAGCGUUCUCGUCGCAGACCCUAUCAGAUUCUGGUGAAUCUGCGAAUUCAGCUGUAUAUCUC,0.07
21,UAACAGGGGGCCACAGCAGGAGCGUUCUCGUCGCAGCUCCUGUCAGAUUCUGGUGAGUCCGCGAAUGCUGCAGUAUAUCUC,0.05
22,UAACAGGGGGCCACAGCAGGAGCGUUCUCGUCGCAGCCCCUGUCAGAUUCUGGUGAAUCUCCGAAUUCUGCUGUAUAUCAC,0.23

# Source: the RNAGym collection of RNA variant scans (doi:10.1093/nar/gkz1192)
